# According to PubChem BioAssay AID488969 (Vanderbilt High Throughput Screening Facility, 2010):
# In all, about 110,000 compounds were measured (“z-score”: median about -0.1, highest 2% from about 2 on). This is one part of the list. The source made the active and inactive calls.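 How the source made its calls: active means z-score in the third read window above 3 or below -3; inactive means the rest.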
# Target: Metabotropic glutamate receptor 8 (Rattus norvegicus) (UniProt P70579)
# Experiment: rat mGluR8 modulators via GIRK flux, primary screen, cell-based, thallium flux, HTS (AID 488969)
# Conditions: HEK293 rat mGluR8, GIRK (G protein-gated inwardly rectifying potassium channel) thallium flux, FluoZin2; at 10 µM; stronger effect = higher value; submaximal glutamate (EC20) added with thallium
# UniProt P70579, sequence (P70579 whole entry, looked up): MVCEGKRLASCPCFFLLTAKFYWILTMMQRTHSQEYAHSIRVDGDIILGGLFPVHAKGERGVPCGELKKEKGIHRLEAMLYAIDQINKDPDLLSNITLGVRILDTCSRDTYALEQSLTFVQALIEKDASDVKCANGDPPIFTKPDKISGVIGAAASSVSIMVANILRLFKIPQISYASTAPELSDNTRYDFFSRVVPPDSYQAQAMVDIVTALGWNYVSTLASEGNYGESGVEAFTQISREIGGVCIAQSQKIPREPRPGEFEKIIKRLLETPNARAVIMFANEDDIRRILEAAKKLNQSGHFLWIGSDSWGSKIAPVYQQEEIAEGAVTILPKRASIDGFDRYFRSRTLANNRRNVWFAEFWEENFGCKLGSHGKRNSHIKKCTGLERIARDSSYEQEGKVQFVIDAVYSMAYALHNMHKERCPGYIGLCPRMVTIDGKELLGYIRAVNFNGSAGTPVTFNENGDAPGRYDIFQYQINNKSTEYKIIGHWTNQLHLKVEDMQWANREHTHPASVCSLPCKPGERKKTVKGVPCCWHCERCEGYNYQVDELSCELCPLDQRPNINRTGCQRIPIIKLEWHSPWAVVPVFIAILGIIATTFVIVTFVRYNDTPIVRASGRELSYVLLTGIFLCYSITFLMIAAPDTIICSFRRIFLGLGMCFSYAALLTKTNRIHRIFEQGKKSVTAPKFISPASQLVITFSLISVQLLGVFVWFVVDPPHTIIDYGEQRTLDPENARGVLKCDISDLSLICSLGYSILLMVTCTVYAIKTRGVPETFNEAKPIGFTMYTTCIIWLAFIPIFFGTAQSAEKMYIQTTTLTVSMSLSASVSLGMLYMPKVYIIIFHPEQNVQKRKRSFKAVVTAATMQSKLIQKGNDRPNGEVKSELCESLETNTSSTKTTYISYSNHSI
row,Structure (SMILES),z-score
1,O=c1oc2cc(Oc3ccc(C(F)(F)F)cc3[N+](=O)[O-])ccc2c2c1CCC2,-2.23
2,COc1cccc(CN(C)CC(=O)NCc2ccccc2Cl)c1,-0.428
3,COC(=O)c1cccc(S(=O)(=O)N2CCOCC2)c1,-0.197
4,COc1ccc(CCNc2nc(-c3sc(N)nc3C)cs2)cc1OC,-0.105
5,Cc1ccc(NC(=O)C2CCN(S(=O)(=O)c3c(C)noc3/C=C/c3ccco3)CC2)nc1,-0.287
6,CCOc1ccc(N2CSC3=C(C#N)C(c4ccco4)CC(=O)N3C2)cc1 (configuration not stated),-0.728
7,O=C(CSc1nnnn1-c1ccc2c(c1)CCC2)Nc1ccc2c(c1)OCCO2,-0.151
8,CCOC(=O)COc1ccccc1/C=N/O,-0.259
9,COc1ccc(-n2c(SCC(=O)Nc3ccccc3)nnc2-c2ccc(NS(=O)(=O)c3ccc(C)cc3)cc2)cc1,0.0713
10,O=C(O)c1cccc(NC(=O)c2cccc(NC(=O)C3CCCO3)c2)c1 (configuration not stated),-0.122
11,Cc1ccc(C(=O)NC2CCN(C(=O)NC3CCCCC3)CC2)cc1,0.275
12,CC(=O)c1c(C)nc(C)nc1NC(=O)C(C)C,-0.127
13,COc1cc(C2C(C(=O)OCCC#N)=C(C)NC3=C2S(=O)(=O)c2ccccc23)cc(OC)c1OC (configuration not stated),-0.219
14,O=S1(=O)c2ccccc2N=NN1Cc1ccc(Cl)cc1,0.142
15,COc1cc(-c2cn[nH]c2N)cc(OC)c1OC,0.202
16,Cc1ccc(N=C2NC(=O)c3cccc([N+](=O)[O-])c32)cc1,-0.0756
17,CCNNC(=O)C(O)(c1cccc(C)c1)c1cccc(C)c1,0.0236
18,CCN(CC)c1ccc(NC(=O)c2[nH]c(C)c(C(C)=O)c2C)c(C)c1,0.615
19,Cc1ccc(CSCCNC(=O)CN2C(=O)c3ccccc3S2(=O)=O)cc1,0.181
20,CN1CCN(NC(=O)c2ccc(F)cc2)CC1,-0.781
21,CCNC(=O)NC1(C(=O)Nc2ccc3c(c2)OCCO3)CCCCC1,0.873
22,CCc1ccc(S(=O)(=O)Nc2c(C)nn(C)c2C)cc1,-0.343
23,CCOC(=O)c1ccc(NC(=O)CSc2nc3cccnc3n2C)cc1,0.279

row,Structure (SMILES),z-score
1,CCOC(=O)CCc1c(C)nc2cc(-c3ccc(F)cc3)[nH]n2c1=O,0.178
2,Cc1ccccc1NC(=O)c1sc(Cl)nc1C,1.16
3,CC(C)(C)c1cnnn1-c1ccc(C(=O)CCl)cc1,-0.643
4,COc1ccc(OC)c(-n2c(SCC(N)=O)nnc2-c2c[nH]c3ccccc23)c1,-0.467
5,Cc1ccc(S(=O)(=O)N(C)CCCC(=O)Nc2ccc(C)cc2C)cc1,-0.0933
6,COC(=O)c1ccsc1NC(=O)C1COc2ccccc2O1 (configuration not stated),-0.613
7,COc1cc([N+](=O)[O-])ccc1N/C=C/C(=O)c1cccs1,-0.108
8,NC(=S)N/N=C/c1ccc(-c2ccc(Cl)c(Cl)c2)o1,0.653
9,COC(=O)c1cccc(NC(=O)c2cccs2)c1C,0.109
10,COc1ccccc1OCC(=O)Nc1ccc(Cl)cc1,-0.181
11,COc1nn(CC(=O)N2N=C(C)CC2(O)C(F)(F)F)cc1[N+](=O)[O-] (configuration not stated),-0.0682
12,COc1ccc2ccccc2c1CN1CCN(Cc2ccccc2)CC1,0.223
13,CCCCCCC(=O)Nc1nnc(CC)s1,-0.111
14,O=C(O)c1cc2c(ccc3ccccc32)[nH]1,-0.467
15,CCN1CCN(C(=S)NC(C)c2ccccc2)CC1 (configuration not stated),-0.207
16,O=C(Nc1ccc2c(c1)OCCO2)c1ccc(Cl)c(S(=O)(=O)N2CCOCC2)c1,-0.662
17,N#C/C(=C(\O)c1ccco1)c1ccccn1,-0.246
18,CCOC(=O)COc1ccc2cc(C(=O)OCC)c(=O)oc2c1,1.1
19,C/C(=N\NC(=O)CNc1cccc(C(F)(F)F)c1)c1cccc(Br)c1,-0.125
20,Cc1ccccc1C(=O)OC1OC(=O)C(Cl)=C1N1CCOCC1 (configuration not stated),-0.499
21,CCc1ccc(Sc2cc(C(=O)NCCN3CCOCC3)c3ccccc3n2)cc1,-0.7
22,CCOC(=O)c1sc(NC(=O)CN2CCCC2)c(C(=O)OCC)c1C,-0.225
23,CCc1nc(Sc2nc(C)cc(C)n2)c2oc3ccccc3c2n1,-0.129

row,Structure (SMILES),z-score
1,COc1ccc(Nc2nc(N)nc(CSc3nnc(C)s3)n2)cc1,2.42
2,CCC(C)(C)NC(=O)Cc1ccc(OC)c(OC)c1,0.174
3,CCOc1ccc(NC(=O)CCNc2c(N3CCCC3)c(=O)c2=O)cc1,-0.437
4,O=C1CSC(c2ccc(Cl)cc2)N1C1CCCCC1 (configuration not stated),0.0107
5,COc1ccc(/C=N/NC(=O)c2ccoc2C)cc1COc1c(C)cccc1C,-0.274
6,Cc1nc(NCC2CCCO2)nc2c1C(=O)CC(C)C2 (configuration not stated),0.0754
7,COc1ccccc1N1C(=O)c2cccc3c(C(=O)O)ccc(c23)C1=O,-0.226
8,COc1ccc(C(O)CNc2ccc(C)cc2)cc1 (configuration not stated),0.239
9,COc1ccc(-c2noc(CN3CCCCC3)n2)cc1OC,0.247
10,CN(C(=S)NC(=O)c1ccccc1Br)C1CCCCC1,active: 3.51
11,Cc1cc(C)c(S(=O)(=O)c2ccccc2C)c(N(C)C)n1,-0.384
12,CC(=O)Nc1ccc(S(=O)(=O)Nc2ccc(S(=O)(=O)N3CCCCCC3)cc2)cc1,-0.013
13,O=C(CNS(=O)(=O)c1ccc(Br)s1)NCc1ccc2c(c1)OCO2,1.5
14,O=C(N/N=C/c1ccc(-c2ccc([N+](=O)[O-])cc2)o1)C(O)c1ccccc1 (configuration not stated),-0.759
15,CC(=O)Cc1nsc(NC(=O)c2ccc(Br)o2)n1,-0.0971
16,COc1ccc(C(F)(F)F)cc1NC(=O)c1nc2nc(C)cc(C(F)F)n2n1,0.516
17,CCCn1c(CCC(=O)O)ccc1-c1ccc(OC)cc1,-0.256
18,Cc1ccc(C)c(OCCOCCN2CC(C)OC(C)C2)c1C (configuration not stated),-0.135
19,O=C(CC(=O)c1ccccc1)Nc1cccnc1,0.208
20,CCOC(=O)/C(C#N)=C/NC(=O)NC(C)(C)C,0.141
21,C=CCn1c(SCC(=O)N2CCN(c3ccccc3)CC2)nnc1-c1ccco1,-0.329
22,Cn1c(CCc2ccccc2)nnc1SCC(=O)N1CCOCC1,-0.062
23,Cn1c(NC(=O)c2ccco2)c(-c2ccc(Cl)cc2)c(=O)c2ccccc21,0.399

row,Structure (SMILES),z-score
1,O=C(OCc1ccc(F)cc1)c1ccc2c(c1)-c1ccccc1C2=O,-0.0352
2,CC(C)(C)n1nc2c(c1NC(=O)Cc1cccs1)CSC2,-0.677
3,COc1cccc(/C=N/n2nnc3c(cnn3-c3ccccc3)c2=O)c1,0.104
4,CCCNS(=O)(=O)c1ccc(CCC(=O)NCC2CCCO2)cc1 (configuration not stated),0.0154
5,Cn1c(SCC(=O)Nc2ccccc2-c2ccccc2)nnc1-c1ccco1,-0.707
6,O=C(NCc1ccccc1)C12CN(Cc3ccccc3)CC1C(c1ccc([N+](=O)[O-])cc1)=NO2 (configuration not stated),-0.205
7,CCC(=O)Nc1c2c(nn1-c1ccc(F)cc1)CS(=O)C2 (configuration not stated),0.144
8,COCCCNC(=O)Cn1nnc(-c2ccc(NC(=O)c3ccccc3OC)cc2)n1,1.23
9,CN(C)c1nc(SCc2ccccc2Cl)nc2c1CCCC2,-0.137
10,COC(=O)Cn1c(=NC(=O)c2cccc(OC)c2)sc2cc(OC)ccc21,-0.22
11,O=C(NC(C(=O)N/N=C/c1ccccc1)c1n[nH]c(=O)c2ccccc12)c1ccccc1 (configuration not stated),-0.323
12,CCN(CC)c1ccc(C2CC(=O)Nc3cc(OC)c(OC)cc32)cc1 (configuration not stated),-0.18
13,COc1ccc(OCCNC2CCCC2)cc1,0.204
14,COc1cccc(C(=O)Nc2ccc(F)cc2F)c1,0.125
15,COc1cc(OC)c(OC)cc1CNC1CCCCCC1,0.971
16,CNCCCC1Sc2ccccc2Oc2ccccc21 (configuration not stated),2.85
17,O=C(CSc1ncn[nH]1)N(C1CCCCC1)C1CCCCC1,-0.388
18,COc1cc(C(=O)O)cc(Br)c1OC1CCCC1,-0.268
19,N#Cc1c(NC(=O)CSc2nnnn2C2CCCC2)sc2c1CCCC2,0.275
20,O=C1CCc2cc(S(=O)(=O)N3CCC(C(=O)NC4CCCc5ccccc54)CC3)ccc2N1 (configuration not stated),-0.478
21,Cc1cc(C)cc(NC(=O)Cn2c(-c3ccccc3Cl)nc3ccccc32)c1,-0.278
22,c1ccc2[nH]c(CN3CCN(c4ncnc5c4oc4ccccc45)CC3)nc2c1,-0.746
23,FC(F)(F)c1cccc(-n2cccc2/C=N/n2cnnc2)c1,-0.218

row,Structure (SMILES),z-score
1,CCNC(=S)N1CCN(c2cccc(C(F)(F)F)c2)CC1,0.0243
2,CCC(=NCCc1c(C)[nH]c2ccccc12)C1=C(O)CC(c2ccccc2)CC1=O (configuration not stated),0.443
3,COc1ccc(NC(=O)c2cc(S(=O)(=O)N(C)C)ccc2N2CCCC2)cc1Cl,-0.0242
4,Cc1[nH]n(-c2cccc(Cl)c2)c(=O)c1/C=N/n1c(C)nc2ccccc2c1=O,0.412
5,COCCOC(=O)C1=C(C)Nc2ncnn2C1c1ccc(F)cc1 (configuration not stated),-0.249
6,O=C(NCCCN1CCOCC1)c1ccc(Sc2ccccc2Cl)c([N+](=O)[O-])c1,-1.05
7,NC(=O)c1nsc(C(=O)N(CC(=O)NCc2ccco2)c2ccccc2F)c1N,-0.172
8,CC(=O)Nc1ccc(N2C(C(C)=O)=NN(c3ccccc3)C2c2cccs2)cc1 (configuration not stated),-0.489
9,O=C(CCC(=O)OCC(=O)c1ccc(Cl)cc1)NC1CCCCC1,-0.041
10,O=C1C2C3c4ccccc4C(c4ccccc43)C2C(=O)N1c1nc(-c2ccccc2)cs1 (configuration not stated),0.0024
11,O=C(CCCC(=O)OCC(Cl)=C(Cl)Cl)Nc1cccc2ccccc12,-0.124
12,Cc1c(CN(C)C(=O)/C=C/c2ccc([N+](=O)[O-])cc2)cnn1C,-0.304
13,Cc1ccc(N2CC(C(=O)Nc3nnc(C(C)C)s3)CC2=O)cc1 (configuration not stated),-0.0775
14,COc1ccc2sc(NC(=O)CC(C)C)nc2c1,-0.234
15,Cc1c(C(=O)NCC2COc3ccccc3O2)oc2ccc(S(=O)(=O)N(C)C3CCCCC3)cc12 (configuration not stated),-0.0918
16,O=[N+]([O-])c1ccc(N2CCCCC2)c(Cl)c1N1CCCCC1,-0.34
17,Cc1ccc(-c2nn(-c3ccccc3)cc2/C=N/NC(=O)c2ccc3c(c2)OCO3)cc1,-0.115
18,Cc1ccc2c(Cl)cc(Cl)c(OCC(=O)Nc3cc(S(=O)(=O)N(C)C)ccc3C)c2n1,-0.0675
19,Cc1ccc(C(=O)C(OC(=O)CN2C(=O)c3ccccc3C2=O)c2ccccc2)cc1 (configuration not stated),-0.46
20,CC(C)NC(=O)c1ccc(OC2CSC2)cc1,0.0666
